About 410 (8.5%) of roughly 4,800 compounds showed an effect of 50% or more. The list shows a part of the results.
Each compound was assayed on Plasmodium falciparum (assay: Confirmatory screen in NF54 pLDH assay, in single point, at 2uM, 72h). Conditions: timepoint 72 hour.
Format: functional, Erythrocyte

| Compound | % Inhibition |
| --- | --- |
| Cc1cccnc1C(=O)N1CC(n2cnnc2[C@@H]2CCCO2)C1 | -4% |
| Cc1cccc(NC(=O)CS(=O)(=O)Cc2cc(Cl)cc3c2OCOC3)c1C | -18% |
| COc1ccc(CN2C(=O)c3cc4ccc(OC)cc4n3C[C@]2(C(=O)NC2CCCCCCC2)c2ccccc2)cc1 | -12% |
| COc1cccc(N2CCN(C(=O)c3cn4cc(-c5ccc(Cl)cc5)ccc4n3)CC2)c1 | 2% |
| O=C(Nc1ccsc1C(=O)NC1CCCCC1)c1cnccn1 | 11% |
| Cc1nn(C)cc1S(=O)(=O)N1CCC[C@@H]1CCc1ccccn1 | -22% |
| Cc1ccccc1NC(=O)c1cnn2c3c(cnc12)CCCCCC3 | 14% |
| O=C(Nc1ccccc1)C1=NN(CC(=O)N2CCCCC2)C(=O)CC1 | -1% |
| O=C(NC1CCCNC1=O)NC1CCCC1c1ccc(Cl)cc1 (stereo unspecified) | 10% |
| CC(C)c1ccc(N2CCN(C(=O)c3ccc(C(F)(F)F)cc3)[C@@H](C)C2=O)cc1 | 8% |
| Cc1nc2c(c(=O)[nH]1)NC(=O)[C@H](CC(C)C)N2 | 0% |
| NC(=O)c1cccc(CNc2ccc(-n3cncn3)c(Cl)c2)c1 | 7% |
| O=c1[nH]c2cc(Cl)c(S(=O)(=O)Cl)cc2[nH]1 | 6% |
| Cc1cc(C(=O)NCCCS(N)(=O)=O)c(Cl)cc1F | -7% |
| C=CCN1C(=O)OC(C)(CCC=C(C)C)C1(C)O (stereo unspecified) | 14% |
| O=C(CNC(=O)COc1ccccc1)NCC1(O)CCCCCC1 | 6% |
| CCOc1ccc(NC(=O)N(Cc2cn(C)c3ccccc23)C2CCCCC2)cc1 | -14% |
| CCOc1ccc(-n2c(CN3CCN(C(=O)c4ccco4)CC3)nc3ccccc3c2=O)cc1 | 14% |
| C#CCNC(=O)[C@H](C#N)c1nc(C)c(C)s1 | 10% |
| O=C(NCCc1ccccc1)N1CC[C@@]2(C1)Nc1cccnc1N=C2NC1CCCC1 | -5% |
| Cc1nc2cc(OCc3ccccc3)ccc2n1C | 11% |
| Cc1ccc(Cn2ccn3nc(-c4ccc5c(c4)OCO5)cc3c2=O)cc1C | -7% |
| CC(C)N1CC[C@H](c2nnc3n2CCN(S(=O)(=O)c2ccccc2Cl)C3)C1 | 12% |
| CN(C)S(=O)(=O)N(CCN1CCCC1)[C@H]1CCN(C(=O)CCCc2ccccc2)C1 | 9% |
| Cc1cc(C)nc(-n2nc(-c3ccc(Cl)cc3)c3c2NC(=O)C[C@@H]3c2ccc3c(c2)OCO3)n1 | 2% |
| CCC(C)(C)NCC(=O)Nc1cc(F)ccc1F | -18% |

| Compound | % Inhibition |
| --- | --- |
| COc1ccc2cc3n(c2c1)C[C@](C(=O)NC1CCCCCC1)(c1ccccc1)N(Cc1cccc(C)c1)C3=O | -15% |
| O=C(Nc1ccccc1)c1cc(C(=O)Nc2ccccc2)cc(C(=O)Nc2ccccc2C(=O)O)c1 | 11% |
| CC1CCN(C[C@@H](O)CNc2nnc(C(F)(F)F)s2)CC1 | 1% |
| CCN1CC(=O)N[C@H]2CN(C(=O)CCn3ccnc3C)CC[C@@H]2OCc2cccc(c2)Oc2cc(OC(C)C)cc(c2)C1=O | 10% |
| CN(Cc1ccccc1)C(=O)C[C@H]1CCN(C(=O)NC2CCCCC2)C1 | 7% |
| CC[C@H]1Cn2c(C(=O)NCc3cccs3)cc3c(Cl)ccc(c32)O1 | -3% |
| O=C(CCn1ccc2cc(S(=O)(=O)N3CCCCC3)ccc21)N1CCN(c2ccccc2F)CC1 | 10% |
| O=C(Nc1ccccc1)Nc1nc2c(s1)CCCCCCCCCC2 | -9% |
| O=C(C[C@H]1CCc2nnc(C3CCOCC3)n2CC1)Nc1ccc(Cl)cc1F | -2% |
| O=C(c1cc(Br)c(C(=O)N2CCCC2)cc1Br)N1CCCC1 | -1% |
| C=Cn1cc[n+](CC(=O)c2ccc(-c3ccccc3)cc2)c1 | 51% |
| Cc1ncccc1C(=O)Nc1cccc(Oc2cccnn2)c1 | 4% |
| O=C(NCc1ccco1)c1cc2c(Cl)ccc3c2n1CCO3 | 12% |
| O=C(NCc1c(O)ccc2c1CCCC2)c1ccc2nncn2c1 | -13% |
| COc1ccc(C(=O)n2nc(Nc3ccccc3Cl)cc2Nc2ccccc2Cl)cc1 | 12% |
| CCNc1ccnc(NCc2nc(-c3cccc(F)c3)c(-c3ccccn3)[nH]2)n1 | 22% |
| CS(=O)(=O)N1CCc2cc(S(=O)(=O)N3CCC(c4ccccc4)CC3)ccc21 | 10% |
| CN1CCC(NC(=O)c2cnc(-c3ccc4c(c3)OCO4)nc2Nc2ccc(F)cc2)CC1 | 20% |
| Cc1cc(OC(=O)[C@H]2CC(=O)N(c3ccc4ccccc4c3)C2)c(C(C)C)cc1NC1=NS(=O)(=O)c2ccccc21 | 1% |
| Cc1ccc(NC(=O)CC2CC3CCC2C3)c(Br)c1 (stereo unspecified) | 10% |
| C[C@H]1CCCCN1C(=O)CN1CCN(c2nccn3cnnc23)CC1 | 7% |
| O=C(CCCc1ccccc1)Nc1cc(C2CC2)nn1-c1nc(-c2ccccc2)cc(=O)[nH]1 | 36% |
| COc1ccc([C@H](CNC(=O)c2ccccc2)N2CCC(c3ccccc3)=N2)cc1 | -10% |
| CCN(C)CCN(CC)C(=O)CCc1cc2c(n1-c1ccc(OC)cc1)-c1ccccc1CC2 | 14% |
| COc1ccc(S(=O)(=O)N2CCC(C)(C(=O)NCc3ccc4c(c3)OCO4)CC2)cc1OC | 5% |
| CC(C)(C)OC(=O)N1C2CCC1CC(CC(=O)NC1CCCC1)C2 (stereo unspecified) | 10% |

| Compound | % Inhibition |
| --- | --- |
| N#Cc1cc(N2CCc3ccccc3C2)nc2ccccc12 | 8% |
| CCCCCNC(=O)NCc1ncoc1C | 4% |
| Cn1ccnc1[C@@H]1CCCN1S(=O)(=O)c1c2c(nn1C)CCCC2 | 13% |
| CCCn1c(C)cnc1C1CN(S(=O)(=O)c2cc(Cl)ccc2Cl)C1 | 6% |
| CCCCn1nc(NC(=O)c2cc(C3CC3)[nH]n2)cc1C | 6% |
| O=C(O)[C@@H]1CN(S(=O)(=O)c2cc3ccccc3o2)c2ccccc21 | 12% |
| Cc1cc(C(=O)Nc2cc(Br)c(=O)n(C)c2)no1 | -9% |
| CN(Cc1nccn1C)C(=O)c1cc2ccccc2[nH]1 | 15% |
| C[C@@H](CNC(=O)c1ccc(Cl)c(-n2cnc3cccnc32)c1)c1ccccc1 | 3% |
| N#Cc1nc(COc2cccc(Cl)c2)oc1NC[C@H]1CCCO1 | 9% |
| O=S(=O)(N[C@@H](Cn1cnc2ccccc21)c1ccc(F)cc1)c1cc(F)c(F)cc1F | 7% |
| C#CC[C@H](OC(=O)c1nc(-c2cnn(C)c2)oc1C)C(C)(C)C | -13% |
| CC(C)C[C@H](N)C(=O)N1CC2CCCCC2C1 (stereo partly specified) | -19% |
| CCCN(CCC)C(=O)CCC(=O)N[C@]1(C(F)(F)F)CCc2ccccc21 | 11% |
| Cc1c([C@@H](NCc2ncccc2O)C(C)C)oc2ccccc12 | 94% |
| COc1ccc(OC)c([C@H](C)NC(=O)N2CCS(=O)(=O)CC2)c1 | 13% |
| Cc1c(C)c2ccc(NC(=O)c3cc4ccccc4o3)cc2[nH]c1=O | 78% |
| Cc1ccc(S(=O)(=O)c2ccc3c(c2)Oc2ccccc2N3)cc1 | -16% |
| O=C(c1csc(C(=O)N2CCCC2)n1)N1CCN(Cc2ccccc2)CC1 | -4% |
| CCC(=O)OCCN1CCN(CCN(C(=O)CC)c2ccc(C3CCCC3)cc2)CC1 | 3% |
| Cc1ccc(O)c(CNc2ccc3c(c2)OCC3(C)C)n1 | -19% |
| Cc1c(Cl)c(-c2nnc(-c3cccc(C(F)(F)F)c3)o2)nn1C | -23% |
| CN(CC(C)(CO)CO)c1ncc(-c2ccccc2)s1 | 10% |
| Cc1cc(=O)[nH]c(N2CCCCCC2)n1 | 8% |
| Cc1[nH]c2ccccc2c1C1CCN(C(=O)c2ccccc2Br)CC1 | 6% |
| O=C(Cc1ccccc1F)N1CC(n2cnnc2C2CCOCC2)C1 | -12% |

| Compound | % Inhibition |
| --- | --- |
| O=C(O)Cc1ccc(OCc2nc(-c3ccsc3)no2)cc1 | 5% |
| O=C(c1ccoc1)N1CCC[C@H](C(=O)N2CCN(C(c3ccccc3)c3ccccc3)CC2)C1 | 6% |
| CCc1cc(N2CCC(N3C(=O)[C@H]4CCCN4C3=O)CC2)ncn1 | 6% |
| CCCN1CCC(NCc2ccc(-c3cccc(Cl)c3Cl)o2)CC1 | 98% |
| CC(=O)Nc1ccccc1N(S(=O)(=O)c1ccc2ccccc2c1)S(=O)(=O)c1ccc2ccccc2c1 | -1% |
| Cc1cccc(-n2c(=O)c3sccc3n(CC(=O)NCc3ccc(F)cc3F)c2=O)c1C | 12% |
| Cn1ccnc1C1CC(NC(=O)c2cc3c(s2)CCC3)CCO1 (stereo unspecified) | 13% |
| Cc1cnc(C(=O)N2CCC[C@H]2c2nc(C3CCOCC3)no2)cn1 | 14% |
| CC(C)c1nc(C(=O)Nc2[nH]c(=O)ncc2F)cs1 | 83% |
| CN1CC[C@H](CN(C)Cc2ccc3cc(O)ccc3c2)C1 | 36% |
| CC(C)(CNC(=O)[C@@H]1CCC(=O)N1)C1=CCCC1 | 12% |
| O=c1[nH]c2nccnc2c(=O)n1Cc1ccc(F)cc1 | -19% |
| CCn1cc(CN2C(=O)C3CCCCC3C2=O)c(C)n1 (stereo unspecified) | 0% |
| O=c1c2ccccc2nnn1-c1ncc(C(F)(F)F)cc1Cl | -5% |
| C=C1CC2C(CC1OC(=O)NC(=O)CN1CCCCC1)C2(C)C (stereo unspecified) | -12% |
| c1ccc(COc2nsnc2N2CCOCC2)cc1 | 6% |
| Cc1[nH]nc2c1C1(CCCCC1)CC(=O)N2 | -5% |
| CC(C)(C)OC(=O)N1C[C@@H](O)CC1=O | -7% |
| CCOC(=O)N1CCc2c(nc(-c3ccc(F)cc3)n(CC(=O)Nc3c(C)cc(C)cc3C)c2=O)C1 | 6% |
| Cc1ccc(O)c(CNCC2(c3ccccc3Cl)CCOCC2)n1 | 98% |
| Cc1ccc(-c2nn3nc(COc4cccc5c4OC(C)(C)C5)nc3s2)cc1 | 13% |
| O=C(OCc1nccn1Cc1ccccc1)c1cccc2cc[nH]c12 | 11% |
| CN1c2ccccc2C(=O)N[C@@H]1c1ccccc1OCc1ccccc1 | -4% |

— ChEMBL document CHEMBL4888484, “Replenishing the malaria drug discovery pipeline: Screening and hit evaluation of the MMV Hit Generation Library 1 (HGL1) against asexual blood stage Plasmodium falciparum ,using a nano luciferase reporter read-out” (2022)
